From PubChem BioAssay AID720707 (National Center for Advancing Translational Sciences (NCATS), 2013)
In all, about 360,000 compounds went through this assay and about 270 (0.075%) were called active. Inconclusive results, whose numbers are uncertain, are shown with a selection of clear calls. Calls follow the shape of the dose curve; as a rule, active = well fitted activation curve with a large enough effect; inconclusive = small, poorly fitted or top-dose-only effect; inactive = no such curve, though single readings can be large or run the other way. No potency is given beside an inconclusive call; the fits are too rough.

Biological target: Rap guanine nucleotide exchange factor 3 (Homo sapiens) (UniProt O95398)
Sequence of UniProt O95398 (O95398 whole entry, looked up): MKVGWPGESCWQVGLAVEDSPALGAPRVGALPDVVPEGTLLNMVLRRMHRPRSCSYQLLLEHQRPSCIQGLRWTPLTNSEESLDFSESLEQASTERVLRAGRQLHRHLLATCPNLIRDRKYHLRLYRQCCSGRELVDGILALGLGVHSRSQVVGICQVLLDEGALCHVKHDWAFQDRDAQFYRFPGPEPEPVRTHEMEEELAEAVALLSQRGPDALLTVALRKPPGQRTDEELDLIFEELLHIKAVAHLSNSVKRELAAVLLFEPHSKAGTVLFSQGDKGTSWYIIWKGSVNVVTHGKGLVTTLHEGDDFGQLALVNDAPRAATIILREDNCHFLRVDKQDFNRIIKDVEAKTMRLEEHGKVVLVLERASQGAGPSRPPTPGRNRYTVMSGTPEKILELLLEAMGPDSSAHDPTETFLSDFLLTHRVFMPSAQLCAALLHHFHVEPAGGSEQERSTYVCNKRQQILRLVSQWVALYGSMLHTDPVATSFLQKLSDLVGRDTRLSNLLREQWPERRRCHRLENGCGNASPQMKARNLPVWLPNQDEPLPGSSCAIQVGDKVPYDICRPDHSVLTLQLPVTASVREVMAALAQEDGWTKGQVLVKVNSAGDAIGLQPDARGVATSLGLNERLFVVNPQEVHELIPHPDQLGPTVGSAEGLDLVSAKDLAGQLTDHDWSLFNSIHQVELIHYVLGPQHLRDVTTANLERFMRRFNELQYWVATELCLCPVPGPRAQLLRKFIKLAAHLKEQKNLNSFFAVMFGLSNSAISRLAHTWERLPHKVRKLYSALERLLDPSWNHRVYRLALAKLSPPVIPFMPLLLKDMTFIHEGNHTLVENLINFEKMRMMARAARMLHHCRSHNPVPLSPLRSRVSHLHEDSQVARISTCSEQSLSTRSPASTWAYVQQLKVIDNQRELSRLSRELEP
Test: qHTS for Agonist of cAMP-regulated guanine nucleotide exchange factor 3 (EPAC1): primary screen; also: nearly all actives have a fitted effect of over 60% in size
Conditions: biochemical assay; activation: at 154 µM (top of the series), 100% = response to 6.5 mM cAMP
How it was run: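 Multi-concentration qHTS readout: loss of Rap1B-bound BODIPY-GDP fluorescence driven by 100 nM EPAC1 with excess GDP (50 uM), monitored kinetically at room temperature; agonist response expressed relative to 6.5 mM cAMP.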
Potency is read from the fitted curve at half-maximal effect; tags tell the direction and shape of the fitted curve.

| Structure (SMILES) | activation | Potency |
| --- | --- | --- |
| COC(=O)[C@H](CCSC)NC(=O)Nc1ccc(OC)c(Cl)c1 | inactive: 0% |  |
| CC(c1ccc(Cl)cc1)n1c(-c2ccc3ccccc3n2)n[nH]c1=S (configuration not stated) |  | inconclusive [activator, partial curve] |
| CCOC(=O)N/N=C\c1ccc(OC/C=C/c2ccccc2)cc1 | inactive: 12.8% |  |
| CCOC(=O)C1=C(C)Nc2ccccc2N=C1NC(=O)/C=C/c1ccc(OC)cc1OC | inactive: 5.12% |  |
| Cc1ccc2[nH]c(CCN(C)C)c(CN3CCOCC3)c2c1 | inactive: -11.6% |  |
| O=C(Nc1ncccc1O)c1ccc2c(c1)OCCO2 |  | inconclusive [activator, single point] |
| C[C@H]1COC(=O)[C@@H](Cc2ccc(F)cc2)CC/C=C/C[C@H](CC(=O)N(CCO)Cc2ccccc2)C(=O)N1 | inactive: -4.61% |  |
| OC(COCC(F)(F)C(F)(F)C(F)(F)C(F)F)Cn1c2ccccc2c2ccccc21 (configuration not stated) | inactive: -12.8% |  |
| CC1CC1c1ccc(/C=C(\C#N)C(=O)Nc2ccc(Cl)cc2)o1 (configuration not stated) |  | active: 100 µM |
| COc1cccc(CNC(=O)c2ccc(C)c(S(=O)(=O)N3CCCCC3)c2)c1 |  | inconclusive [activator, full curve] |
| Cc1ccc(-n2nnnc2SCC(=O)NCC2(N3CCOCC3)CCCCC2)cc1 |  | inconclusive [activator, partial curve] |
| CCCCn1c(N)c(N(CCOC)C(=O)c2ccc(-c3ccc(C(C)=O)cc3)o2)c(=O)[nH]c1=O |  | inconclusive [activator, full curve, poor fit] |
| CCOc1ccc(S(=O)(=O)NCCC(=O)N2CCN(Cc3ccccc3)CC2)cc1 |  | inconclusive [activator, partial curve] |
| CCCCN(CCCC)S(=O)(=O)c1ccc(NS(=O)(=O)c2ccc(NC(C)=O)cc2)cc1 |  | inconclusive [activator, partial curve] |
| CCn1cc(C(=O)OCC(=O)c2ccccc2)c(=O)c2ccc(C)nc21 | inactive: 7.06% |  |
| Cc1ccc(N2C(=O)c3cccc4c(N)ccc(c34)C2=O)c2cccnc12 |  | inconclusive [activator, partial curve, poor fit] |
| CN1/C(=C/c2cccc[n+]2C)Sc2ccccc21 | inactive: 5.05% |  |
| COc1ccc(-c2nnc(SC(C)C(=O)Nc3ccc4c(c3)OCCO4)o2)cc1 (configuration not stated) | inactive: 5.64% |  |
| CC(C)(C)c1cc2nc3c(c(=O)n2[nH]1)CN(Cc1ccccc1)C3=O | inactive: 8.68% |  |
| CC(NCC(=O)Nc1ccccc1C(=O)NC1CC1)c1cccc(Cl)c1 (configuration not stated) |  | inconclusive [activator, full curve] |
| COCCn1c2nc(=O)n(-c3ccccc3)c(=O)c-2nc2ccccc21 |  | active: 89.1 µM |
| O=C(NC1CCCCC1)C1CCCN1S(=O)(=O)c1ccc(Cl)cc1 (configuration not stated) | inactive: 5.26% |  |
| Cc1ccnc(NC(=O)C2CCN(S(=O)(=O)c3cccc(C(F)(F)F)c3)CC2)c1 |  | inconclusive [activator, single point] |

| Structure (SMILES) | activation | Potency |
| --- | --- | --- |
| Nc1c(C(=O)Nc2ccc3c(c2)OCCO3)nnn1Cc1cccc(Cl)c1 | inactive: 2.36% |  |
| CCOc1ccc(S(=O)(=O)Nc2nc3ccccc3nc2-n2ccc(=NC(=O)c3cccs3)cc2)cc1 |  | inconclusive [activator, partial curve] |
| O=C(Nc1cccc(Cl)c1)N(Cc1nc2ccccc2c(=O)[nH]1)Cc1cccs1 |  | active: 89.1 µM |
| O=C(NCc1ccccc1)C1c2ccccc2OCC(=O)N1Cc1ccccc1 (configuration not stated) | inactive: 3.84% |  |
| CCCNC(=O)C1(CC2CC(c3ccccc3)=NO2)CCN(C(=O)OC(C)(C)C)CC1 (configuration not stated) | inactive: -2.66% |  |
| NCCNc1ccc(C(=O)N2c3ccccc3Sc3ccccc32)cc1[N+](=O)[O-] | inactive: 1.49% |  |
| O=C(N=c1ccn(-c2nc3ccccc3nc2NS(=O)(=O)c2ccccc2)cc1)c1ccccc1Cl |  | inconclusive [activator, full curve] |
| C=CCn1cc(/C=C/c2cc[n+](C)cc2)c2ccccc21 |  | inconclusive [activator, full curve] |
| CC(NC(=S)Nc1ccc(S(=O)(=O)N2CCOCC2)cc1)C1CC2CCC1C2 (configuration not stated) |  | inconclusive [activator, full curve, poor fit] |
| COc1cc(/C=C/C(=O)OCC(=O)Nc2oc(C)c3c(C)n[nH]c(=O)c23)ccc1OC(F)F |  | inconclusive [activator, single point] |
| O=C(CCc1nc2ccccc2c(=O)[nH]1)Nc1cccc(S(=O)(=O)N2CCCCC2)c1 |  | inconclusive [activator, single point] |
| COc1ccc(C(CNC(=O)c2ccc(-c3ccccc3Cl)o2)N2CCOCC2)cc1 (configuration not stated) |  | inconclusive [activator, partial curve] |
| CS(=O)(=O)N(CC(O)CON=C1c2ccccc2-c2ccccc21)c1ccc(F)cc1 (configuration not stated) |  | inconclusive [activator, partial curve] |
| COc1ccccc1/C=C/C=C1\Oc2c(ccc(O)c2CN(C)C)C1=O |  | inconclusive [activator, partial curve] |
| O=C(CCN1C(=O)/C(=C/c2cccs2)SC1=S)Nc1ccccn1 |  | inconclusive [activator, single point] |
| N#CC(C#N)=C1C=C2C=C(N3CCOCC3)CCC2CC1 (configuration not stated) |  | inconclusive [activator, full curve, poor fit] |
| O=c1[nH]n2c(=O)c3c([nH]c2c1N=Nc1cccc(Cl)c1)CCCC3 |  | inconclusive [activator, partial curve] |
| Cc1cc(C)nc(-n2nc(C)c(Sc3ccc(F)cc3)c2N)n1 | inactive: -3.17% |  |
| Nc1c(C(=O)Nc2ccc(S(=O)(=O)N3CCCC3)cc2)sc2nc3ccc(OC(F)(F)F)cc3cc12 |  | inconclusive [activator, single point] |
| COc1ccc(/C(C)=N/NC(=S)NCCc2ccccc2)c(O)c1 |  | inconclusive [activator, single point] |
| Cc1ccc(-c2nn3c(C)nnc3s2)cc1NC(=O)c1ccc(-c2cccc(Cl)c2)o1 |  | inconclusive [activator, partial curve] |
| COc1cccc(/C(O)=C/c2nc3ccc(C(=O)NCCc4ccc(Cl)cc4)cc3[nH]c2=O)c1 |  | inconclusive [activator, single point] |
| COc1ccccc1N1C(C)=CC(=C(C#N)c2nc3ccccc3s2)C=C1C |  | inconclusive [activator, partial curve] |

| Structure (SMILES) | activation | Potency |
| --- | --- | --- |
| COc1ccc(/C=C/C(=O)NCCCN2CCCCCC2)cc1 | inactive: -3.2% |  |
| Cc1ccc(-n2cccc2/C=C2\C(=N)N3N=C(c4ccco4)SC3=NC2=O)cc1 |  | inconclusive [activator, partial curve] |
| N#CC12CCCCC1CC1CCCCC1(C#N)N2N (configuration not stated) |  | inconclusive [activator, partial curve] |
| O=C(NCc1nc2ccccc2[nH]1)C1=C[C@H](C2CCCCC2)C[C@H](OCc2ccc(CO)cc2)O1 | inactive: 4.29% |  |
| N=C1/C(=C/c2coc3ccccc3c2=O)C(=O)N=C2SC(c3ccco3)=NN12 |  | active: 89.1 µM |
| CCOc1ccc(C(=O)Nc2ccccc2N2CCN(C(=O)c3ccccc3)CC2)cc1[N+](=O)[O-] | inactive: 3.22% |  |
| CCC(=O)Nc1ccc(S(=O)(=O)N2CCC(c3nc4ccccc4[nH]3)CC2)cc1 |  | inconclusive [activator, single point] |
| Cc1csc(NC(=O)c2sc3nc(-c4cccs4)ccc3c2N)n1 |  | inconclusive [activator, partial curve] |
| O=C(/C=C/c1cccc(Cl)c1Cl)OCC(=O)N1CCOCC1 |  | inconclusive [activator, single point] |
| O=C(Nc1ccc2c(c1)C(=O)c1ccccc1-2)c1ccccc1 | inactive: -0.593% |  |
| Cc1cccc(C(=O)Nc2cc(S(=O)(=O)N3CCOCC3)ccc2N2CCCC2)c1 |  | inconclusive [activator, single point] |
| CCc1ccc(N=C2NC(=O)/C(=C/c3ccc(OCC(=O)O)c(OC)c3)S2)cc1 |  | inconclusive [activator, partial curve] |
| O=C(Nc1ccc(C(F)(F)F)cc1Cl)c1ccc(Cn2cc(Br)cn2)o1 |  | inconclusive [activator, partial curve] |
| Cc1cccc(NC(=O)c2ccc(Cl)c(S(=O)(=O)N3CCCCC3)c2)n1 |  | inconclusive [activator, single point] |
| Cc1ccc(C)c(Oc2ccc(S(=O)(=O)N3CCN(C)CC3)cn2)c1 |  | inconclusive [activator, partial curve] |
| CCCC(=O)OCCNc1cc(Sc2nccn2C)c2nonc2c1[N+](=O)[O-] | inactive: -4.46% |  |
| CCN(CC)C1=CC2=CC(=C(C#N)C#N)CCC2CC1 (configuration not stated) |  | inconclusive [activator, full curve, poor fit] |
| COc1cc2ccccc2cc1C(=O)NC(=S)Nc1cccc(C(=O)O)c1 |  | inconclusive [activator, partial curve] |
| Cc1[nH]c2ccccc2c1C(=O)C(C)OC(=O)c1ccc(Cl)nc1 (configuration not stated) |  | inconclusive [activator, partial curve, poor fit] |
| Cc1occc1-c1nnc(SCC(=O)Nc2c(F)cccc2F)n1C |  | inconclusive [activator, single point] |
| COc1cc(/C=N/NC(=O)CCn2c3ccccc3c3ccccc32)ccc1O |  | inconclusive [activator, partial curve] |
